# Measurements: article PMC12136788
# This is one part of the list.
# T1: UNK ZnF1-3 (human, UniProt Q9C0B0 31-174)
# T1 sequence: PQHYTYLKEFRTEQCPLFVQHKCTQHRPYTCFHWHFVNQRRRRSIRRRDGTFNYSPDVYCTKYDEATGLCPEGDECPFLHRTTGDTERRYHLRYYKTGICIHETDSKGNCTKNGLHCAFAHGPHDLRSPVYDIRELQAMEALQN
# B1: chr5:118832277:118832278:+_ENSG00000133835_ENST00000256216|hu_hu|motif|central (ssRNA)
# RNA: GGGAGUUCUACAGUCCGACGAUCUGUUGCUGUAGACGUUGCACGACUAGUAUGAUUUGCUGAAACUCCUCCUUCUGAAUCGGUUUUACUCAGAACUUCAAUUAUACUGCCAGUUGAUUCUUGGAUACUCUGAGGCUUGCUGGCCAACAGAGGAUUGAGCAUCA
# B2: chr7:148083511:148083512:+_ENSMUSG00000025487_ENSMUST00000026560|mus_hu|FALSE|FALSE (ssRNA)
# RNA: GGGAGUUCUACAGUCCGACGAUCAAAUCCAACACUCGGGGCUGCACCCAGGUCAUGUGGACUCGUUUGUCCACCUCGUCUAUACUGCCUUUCACCAGCCCCACCGAAAGGGCCUUCAUCACCAGAAGCUCCACCUCAUUCACUCAACAGAGGAUUGAGCAUCA
# B3: 11227573_11230786_2058_CDS_ENSG00000130164_ENST00000252444|human|control|control (ssRNA)
# RNA: GGGAGUUCUACAGUCCGACGAUCCUGUCCAAAAUACUUUGUCCUCAAAGACGGCCAAGGAGAAGGGGUGGGCCAGCCUCUUUUCAUCCUCCAAGAUGGUCUUCCGGUUGCCCCCGUUGACAUCGAUGCUUGAGAUGGAGUGAACAACAGAGGAUUGAGCAUCA
# B4: chr7:140404665:140404666:+_ENSG00000090266_ENST00000247866|hu_hu|hu_hu_hu_mus_False|58_98 (ssRNA)
# RNA: GGGAGUUCUACAGUCCGACGAUCUGCUCCUACUCGUAGGCUGAGUCUACAGUGUCAGUCCUCGUCAUCAGGAGGGAUACCUAAUUCUUCAUCUGUCCACUGUGAAGGAUCUGGAUAUGAAAAGUGACCCAGCACAGCAUCCGACAACAGAGGAUUGAGCAUCA
# B5: chr2:202488911:202488912:-_ENSG00000155755_ENST00000286196|hu_mus|hu_hu_hu_mus_False|8_48 (ssRNA)
# RNA: GGGAGUUCUACAGUCCGACGAUCAUUGAAACAUUUUUCAUAAUCUCCAGUAGCAUUUCAGCAUUAUGUAACAAAAGCUCAAUUGUAAAUACACAUGUCUUAUAAAAAUACACUUAAAAACACGAGUAAAAAUGGGAGGCGCCACAACAGAGGAUUGAGCAUCA
# B6: chr19:41288892:41288893:-_ENSMUSG00000025016_ENSMUST00000025989|mus_mus|FALSE|FALSE (ssRNA)
# RNA: GGGAGUUCUACAGUCCGACGAUCUGGAUGGAACUGAGAAAGCUGGUUAAUUUUAAGAUAAAUAAAUGAGGUUGAUCCAAACUAAGAUUAAGAUGACAGCAGAUAUAUUCCAUGCAGAAUUGAAUAGCUUUUAAUUUUGUUUUUCAACAGAGGAUUGAGCAUCA
# B7: chr1:225611761:225611762:-_ENSG00000143815_ENST00000272163|hu_mus|hu_hu_hu_mus_True|8_78 (ssRNA)
# RNA: GGGAGUUCUACAGUCCGACGAUCCCAGGCCAUCGGCCUCUGACCACUUCACCCUCAGCAAAUUUCCUACUUGGCAUUUUCUAAAAUUAGUCUGGCCGCGCUCCGGCGGGAACUCCAGCCACUCCAGGGAGAAUAGUAGCAGCCCAACAGAGGAUUGAGCAUCA
# B8: 102090863_102090983_4398_3pUTR_ENSG00000160991_ENST00000478730|human|control|control (ssRNA)
# RNA: GGGAGUUCUACAGUCCGACGAUCACUUAAUACCUGCCUGGAUGCUGCCAGGCCAAGAGCUCUGCCUGGGGACCAGGUACAGUAACUGGCCCCCAGAUGGCACUGGAGAUGCGUUCCACAGUCUGGGGAGUGUGGUACUGCGUGCAACAGAGGAUUGAGCAUCA
# B9: chr10:7398381:7398382:+_ENSMUSG00000040034_ENSMUST00000040135|mus_mus|motif|central (ssRNA)
# RNA: GGGAGUUCUACAGUCCGACGAUCACUUACUAGAGACUGGUGAACACCGGCCUGGUUACUUAAGCUAUGUGACAGGAAAGUACGGCUUCUUCCUCCUUGGUGAAAGAGAGAAGACUUUUCAGGUGCAUCUGUGGAGGCAUCCCACAACAGAGGAUUGAGCAUCA
# B10: 123113321_123137217_1693_CDS_ENSMUSG00000041650_ENSMUST00000038374|mouse|control|control (ssRNA)
# RNA: GGGAGUUCUACAGUCCGACGAUCCGGCCCAUUGUUAGAUGCCACGACAGUAUGAUCUUCAUCAUGUAACUUUACCGAGAGCUCCCACUUAGCCACAUCAGGCCUAAUAACUGGUACUCUUGAAUGUUCUUGGAAGCGCUGAGCCAACAGAGGAUUGAGCAUCA
# B11: chr10:116622662:116622663:+_ENSG00000151553_ENST00000369248|hu_hu|FALSE|FALSE (ssRNA)
# RNA: GGGAGUUCUACAGUCCGACGAUCGAUAGGUGUAAAACAAGCCUCUAUGCACAUGCCACACAAUGCGUAUAUGCAAACAUGCUACAUAAAAUAACUUCCUAGAGGGGGUAGUGACAGUUCCCUUCAAGCCGGAACCUUUGAUAGCAACAGAGGAUUGAGCAUCA
# B12: 75573374_75574134_1457_3pUTR_ENSG00000119638_ENST00000238616|human|control|control (ssRNA)
# RNA: GGGAGUUCUACAGUCCGACGAUCUCUGAUCCGAAGGCAUAGAGCUGACCCUCAUCAGUCACACAGACAGUGAAAUCAUCACCACAUGACACCUGACGGAUAGCUUUGCCUUGCAACUUUUCCACAUGCUUUGGCUGUCGAUAGCAACAGAGGAUUGAGCAUCA
# B13: chr6:64286377:64286378:+_ENSG00000112245_ENST00000370650|hu_hu|FALSE|FALSE (ssRNA)
# RNA: GGGAGUUCUACAGUCCGACGAUCACUUGUCUGCAUAGAGGUCGUGCUGUGCCUGGCAGUAAUCUCCACUGCCCUUCAGAAACUCCAUAAAUGUGUGACCAAGAACACCACAGAAUUGAGGAAUAUGUUUACUCAUUGAAGAUUCAACAGAGGAUUGAGCAUCA
# B14: chr5:90669548:90669549:-_ENSG00000113369_ENST00000265138|hu_mus|FALSE|FALSE (ssRNA)
# RNA: GGGAGUUCUACAGUCCGACGAUCUGGAUCAAUCUCUGAAUAGAGAGGUGGGGGCAGGAACCGAAACUCCUGGAUAUAAGCAAACAGUGGUCCUUGGAGAGCUCUCUCAAAAUCAUCACAAGCACCCACUGGGGCGAGAUUAUUCAACAGAGGAUUGAGCAUCA
# Molecular target: T1, UNK ZnF1-3
# Assay: nsRBNS (natural sequence RNA bind-n-seq); RBNS binding buffer (assumed for nsRBNS): 25 mM Tris pH 7.5, 150 mM KCl, 3 mM MgCl2, 0.01% Triton X-100, 500 ug/ml BSA, 20 U/ml SUPERase-In, 4 C; UNK is unkempt and MSI1 is Musashi-1; names of the RNAs are library labels; protein concentration not given here; high values mean tight binding
row,Binder,binding signal [enrichment R]
1,B1,0.593
2,B2,0.645
3,B3,0.975
4,B4,0.851
5,B5,0.835
6,B6,3.07
7,B7,1.18
8,B8,1.04
9,B9,0.933
10,B10,0.675
11,B11,0.502
12,B12,0.639
13,B13,1.34
14,B14,1.26
